Variants at the background level are over-represented here.
B1: TPR 5TU (parent)
chain: GGAUCUUCUCGAUCUAACAAAAAAGACAAAUCUGCCACAAAGCUUGAGAGCAUCUUCGGAUGCAGAGGCGGCAGCCUUCGGUGGCGCGAUAGCGCCAACGUUCUCAACUAUGACACGCAAAACGCGUGCUCCGUUGAAUGGAGUUUAUCAUG

Variants of: B1
Experiment: polymerase ribozyme fitness, log enrichment relative to wild type (log ratio); higher = more active; in vitro selection for triplet polymerase activity
Summary of the method: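 A heterodimeric triplet polymerase ribozyme had each of its subunits mutagenized by PCR into a library, which was transcribed. One round of in vitro selection, done in triplicate, annealed each library with a biotinylated primer, its partner subunit and triplets, then incubated it frozen at −7 °C before gel excision of extended constructs, streptavidin-bead capture and RT-PCR. Fitness is the logarithm of genotype enrichment relative to wild-type enrichment, based on Illumina sequencing of inputs and outputs and inverse-variance-weighted replicate averages. A base-2 logarithm is used, and genotypes were kept only with ≥10 input reads and ≥1 read per output.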
With A20G G42A U82G G84A A91C A107C the “polymerase ribozyme fitness (log ratio)” value was no more than -4.2. In the case of A20U A40C G50C G94C U104A C118U, the “polymerase ribozyme fitness (log ratio)” value is reported as no more than -4.2. In the case of A20C A29U G74C C87U C93G C96A, the “polymerase ribozyme fitness (log ratio)” value is reported as no more than -4.2. In the case of A20C G50C C54U G58C G62A G86A C125U A142C, the “polymerase ribozyme fitness (log ratio)” value is reported as no more than -4.2. In the case of A20U C54U G133U A138C, the “polymerase ribozyme fitness (log ratio)” value is reported as no more than -4.2. With A20U A39C G48A G94A the “polymerase ribozyme fitness (log ratio)” value was no more than -4.2. For A20C A28U G48C G70A C87G A120G U135C, the “polymerase ribozyme fitness (log ratio)” value was no more than -4.2. In the case of A20G A37U U111G, the “polymerase ribozyme fitness (log ratio)” value is reported as no more than -4.2. With A20G G83A G88C C93G G100A the “polymerase ribozyme fitness (log ratio)” value was no more than -4.2. For A20U A30C A89U G92A C116U U145G, the “polymerase ribozyme fitness (log ratio)” value was no more than -4.2. With A20C U53A G59A C103A G140A the “polymerase ribozyme fitness (log ratio)” value was no more than -4.2. With A20G C27A A47G G92A the “polymerase ribozyme fitness (log ratio)” value was no more than -4.2. With A20C C57U G59C G62C G124A the “polymerase ribozyme fitness (log ratio)” value was -0.9. With A20C G50A C76G G80C A91U A98G the “polymerase ribozyme fitness (log ratio)” value was no more than -4.2. In the case of A20U C93A C125G A138C, the “polymerase ribozyme fitness (log ratio)” value is reported as no more than -4.2. For A20U C36A U61A C93U, the “polymerase ribozyme fitness (log ratio)” value was no more than -4.2. For A20C G42U C54G C95A U102G C103A, the “polymerase ribozyme fitness (log ratio)” value was no more than -4.2. With A20C G68C G141C the “polymerase ribozyme fitness (log ratio)” value was no more than -4.2. With A20G A22G U55A U90G G94A A120U the “polymerase ribozyme fitness (log ratio)” value was no more than -4.2. With A20U C57G A73G C96G G140U the “polymerase ribozyme fitness (log ratio)” value was no more than -4.2. For A20G G34C C54G G58C G71A C96U, the “polymerase ribozyme fitness (log ratio)” value was no more than -4.2. With A20U C35U U53A U82A C87U C93G C132U the “polymerase ribozyme fitness (log ratio)” value was no more than -4.2. With A20C A30G A52U U82C A110G C131G the “polymerase ribozyme fitness (log ratio)” value was no more than -4.2. With A20U A41C G50A G141A the “polymerase ribozyme fitness (log ratio)” value was -4.03. In the case of A20C A29G C75U C93G C96G A110U C129A, the “polymerase ribozyme fitness (log ratio)” value is reported as no more than -4.2. With A20C C69A C85U C95G A107U the “polymerase ribozyme fitness (log ratio)” value was no more than -4.2. With A20C G42A U56A A73G C93G the “polymerase ribozyme fitness (log ratio)” value was no more than -4.2. For A20G C95A A110G, the “polymerase ribozyme fitness (log ratio)” value was -3.46. For A20C G84U, the “polymerase ribozyme fitness (log ratio)” value was -3.03. In the case of A20G A28U A52U G59C G94A A107C C108A U134G, the “polymerase ribozyme fitness (log ratio)” value is reported as no more than -4.2. In the case of A20U A52C C76G A91C G100C A115U U139G, the “polymerase ribozyme fitness (log ratio)” value is reported as no more than -4.2. For A20G A52G G58U C87U, the “polymerase ribozyme fitness (log ratio)” value was -0.805. In the case of A20G C93U C99U U104C C131U G133U, the “polymerase ribozyme fitness (log ratio)” value is reported as no more than -4.2. With A20G G50C C54G C76A C87G U90G C95U the “polymerase ribozyme fitness (log ratio)” value was no more than -4.2. With A20C A40U U61A G92A A97C C116G G141A A150G the “polymerase ribozyme fitness (log ratio)” value was no more than -4.2. In the case of A20G A29C G46U C54U C96U C116A U148A, the “polymerase ribozyme fitness (log ratio)” value is reported as no more than -4.2. For A20G U45C U56G C57U C75A C87G G136C, the “polymerase ribozyme fitness (log ratio)” value was no more than -4.2. With A20G A23G U31C C32U U45G U53A G68C C76U C87A G92C the “polymerase ribozyme fitness (log ratio)” value was no more than -4.2. For A20C C54U C63U G67U G84U C108G, the “polymerase ribozyme fitness (log ratio)” value was no more than -4.2. For A20C C63U G88C C95U, the “polymerase ribozyme fitness (log ratio)” value was no more than -4.2. With A20U C35U C95A A97G C99A C105U A138G the “polymerase ribozyme fitness (log ratio)” value was no more than -4.2. For A20G G136A, the “polymerase ribozyme fitness (log ratio)” value was 0.27. In the case of A20G G83C U90C C149A, the “polymerase ribozyme fitness (log ratio)” value is reported as no more than -4.2. In the case of A20C G48A A52C U55G A66C C72G A91G A119C U144G, the “polymerase ribozyme fitness (log ratio)” value is reported as no more than -4.2. With A20C A26U U53A C76A A107C A122U G141U the “polymerase ribozyme fitness (log ratio)” value was no more than -4.2. With A20C C32U C38A A91C C96G the “polymerase ribozyme fitness (log ratio)” value was no more than -4.2. For A20G A41G C54U U56A C93G A120G U139G, the “polymerase ribozyme fitness (log ratio)” value was -2.99. For A20U G48A A60G U139A A142C A147G, the “polymerase ribozyme fitness (log ratio)” value was no more than -4.2. With A20U C36U A39C A97U the “polymerase ribozyme fitness (log ratio)” value was no more than -4.2. With A20U C38G A91G C99G A147C the “polymerase ribozyme fitness (log ratio)” value was no more than -4.2. For A20U A28U A52C C85U C123A, the “polymerase ribozyme fitness (log ratio)” value was no more than -4.2. With A20U C76U A97G C105U C123U U134A the “polymerase ribozyme fitness (log ratio)” value was no more than -4.2. With A20C U44G U55A G74A A89C C95G U127G the “polymerase ribozyme fitness (log ratio)” value was no more than -4.2. With A20G A21C C93A A97G the “polymerase ribozyme fitness (log ratio)” value was -3.83. With A20G G50C C54G C105G A106U G133C U151A the “polymerase ribozyme fitness (log ratio)” value was no more than -4.2. For A20G G62U C87G U102G, the “polymerase ribozyme fitness (log ratio)” value was no more than -4.2. For A20G A22C, the “polymerase ribozyme fitness (log ratio)” value was -0.665. In the case of A20U C35A G92U A110U, the “polymerase ribozyme fitness (log ratio)” value is reported as no more than -4.2. With A20U C36G G70A the “polymerase ribozyme fitness (log ratio)” value was -4.1. For A20C U45A G46A A49G C72A G88C C116U G117A, the “polymerase ribozyme fitness (log ratio)” value was no more than -4.2. For A20U A66U C125G G133U, the “polymerase ribozyme fitness (log ratio)” value was no more than -4.2. For A20U G48A G84A G152C, the “polymerase ribozyme fitness (log ratio)” value was no more than -4.2. In the case of A20C G92A U101G G124A C129U, the “polymerase ribozyme fitness (log ratio)” value is reported as -3.24. For A20G A49C U55A G68U G83A G84A G112A, the “polymerase ribozyme fitness (log ratio)” value was no more than -4.2. In the case of A20U A41C U44G U61A A64C G88C U134A, the “polymerase ribozyme fitness (log ratio)” value is reported as no more than -4.2. With A20C U44A G48A U90A C95G A137C U144G A150U the “polymerase ribozyme fitness (log ratio)” value was no more than -4.2. For A20G U104C G117U, the “polymerase ribozyme fitness (log ratio)” value was -0.102. With A20U A40C G80U G83A C99U G133U A142G U145C the “polymerase ribozyme fitness (log ratio)” value was no more than -4.2. With A20U A40G G84U U148C the “polymerase ribozyme fitness (log ratio)” value was no more than -4.2. With A20G A26U the “polymerase ribozyme fitness (log ratio)” value was -2.24. In the case of A20U A23U A39G G42A C99U G136A U145C, the “polymerase ribozyme fitness (log ratio)” value is reported as no more than -4.2. In the case of A20C C85A G126C U144A, the “polymerase ribozyme fitness (log ratio)” value is reported as -0.594. With A20G C27A C38A C95A C108U A110G G143C the “polymerase ribozyme fitness (log ratio)” value was no more than -4.2. With A20C C36A A49U U56G A91U U146C the “polymerase ribozyme fitness (log ratio)” value was no more than -4.2. For A20U A23U U44G G59C A60G G84U C95G U104G, the “polymerase ribozyme fitness (log ratio)” value was no more than -4.2. In the case of A20U A26C G84U C103G A106C C108G, the “polymerase ribozyme fitness (log ratio)” value is reported as no more than -4.2. For A20U C43U U53C C54U A89U A91C G92U, the “polymerase ribozyme fitness (log ratio)” value was no more than -4.2. With A20G A40U A41C C75G G92C C118U A120U U151G the “polymerase ribozyme fitness (log ratio)” value was no more than -4.2. In the case of A20C A40C G74C A107G C131A G133U U135A, the “polymerase ribozyme fitness (log ratio)” value is reported as no more than -4.2. For A20C C35G G48U U77C G86U C116G U148G, the “polymerase ribozyme fitness (log ratio)” value was no more than -4.2. In the case of A20C C85U, the “polymerase ribozyme fitness (log ratio)” value is reported as -1.04. In the case of A20G G50C C75A U77G A91U A120G G143A, the “polymerase ribozyme fitness (log ratio)” value is reported as no more than -4.2. With A20C C85G G92C A120G A121C A150G the “polymerase ribozyme fitness (log ratio)” value was no more than -4.2. For A20C A47U U101A A122U, the “polymerase ribozyme fitness (log ratio)” value was -0.358.

From the RNAGym collection of RNA variant scans (doi:10.1073/pnas.2313332121)
